In PubChem BioAssay AID2675 (National Center for Advancing Translational Sciences (NCATS), 2010):
Out of some 280,000 compounds screened, about 100 (0.036%) were called active. Inconclusive means that the source gave no clear call. Such entries were picked first, then a sample of the others. Calls come from the whole dose curve; as a rule, active = well fitted inhibition curve with a large enough effect in the signal ratio, with a control signal flat (not every such curve was filed as active); inconclusive = small, poorly fitted or top-dose-only effect, or effect the other way, or a change in a side signal; inactive = no such curve, though single readings can be large or run the other way; the % refers to the signal ratio. Potencies of inconclusive entries are doubtful fits and often do not repeat. A note “side channel” means that the fit belongs to a control or component signal, not to the main read-out.

target: Muscleblind-like protein 1 (Homo sapiens) (UniProt Q9NR56); assay: qHTS Assay for Inhibitors of MBNL1-poly(CUG) RNA binding; settings: TR-FRET MBNL1-His/biotin-(CUG)12 binding, 665/545 ratio; series mostly up to 57.5 µM
Chain of UniProt Q9NR56 (Q9NR56 whole entry, looked up): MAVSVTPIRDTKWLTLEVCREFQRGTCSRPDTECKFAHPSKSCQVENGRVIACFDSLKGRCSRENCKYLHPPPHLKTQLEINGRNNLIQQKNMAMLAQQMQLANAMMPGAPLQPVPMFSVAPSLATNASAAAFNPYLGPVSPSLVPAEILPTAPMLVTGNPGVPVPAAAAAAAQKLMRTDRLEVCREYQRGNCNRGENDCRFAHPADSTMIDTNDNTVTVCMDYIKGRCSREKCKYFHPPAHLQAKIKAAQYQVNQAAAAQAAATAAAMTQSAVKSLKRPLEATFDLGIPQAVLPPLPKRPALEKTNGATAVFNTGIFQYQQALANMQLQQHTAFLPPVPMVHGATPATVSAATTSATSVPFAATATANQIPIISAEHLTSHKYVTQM
Outline: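 His-tagged MBNL1 binding to biotinylated (CUG)12 RNA was measured by TR-FRET using terbium anti-His antibody (0.055 ng/ul final) and streptavidin-XL665 (5 nM final). Compounds were titrated 92 nM to 58 uM; 60 min at room temperature.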
Potency is the fitted concentration of half-maximal effect; tags give direction and shape of the fitted curve or compound fluorescence and quenching.

| SMILES | Potency |
| --- | --- |
| CCOC(=O)N/N=C/C=C/c1ccccc1 | inconclusive: 3.16 µM [quencher, side channel, partial curve] |
| CC1CCCCN1CCCNc1ccc(C(CC(N)=O)NC(=O)Cc2cccc3ccccc23)cc1[N+](=O)[O-] (stereo unspecified) | inconclusive: 14.1 µM [quencher, side channel, partial curve] |
| O=C(N/N=C/c1cccc(OC(=O)c2ccco2)c1)c1ccc(F)cc1 | inconclusive: 28.2 µM [quencher, side channel, single point] |
| COc1ccccc1NC(=O)Cn1ncc2c1-c1ccccc1OC2 | inconclusive: 39.8 µM [quencher, side channel, single point] |
| O=C(CSc1nnc(-c2ccncc2)o1)Oc1ccccc1 | inactive |
| CCNC(=S)N/N=C/c1ccc(C#N)cc1 | inconclusive: 31.6 µM [quencher, side channel, single point] |
| CN(C)c1ccc(P(=O)(CC(=O)N/N=C/c2ccc(C#N)cc2)OCCCl)cc1 (stereo unspecified) | inconclusive: 28.2 µM [quencher, side channel, partial curve] |
| COCCCN1C(=O)C(=O)/C(=C(/O)c2ccc(S(=O)(=O)N3CCOCC3)cc2)C1c1cccc(Cl)c1 (stereo unspecified) | inconclusive: 22.4 µM [quencher, side channel, partial curve] |
| CCCCn1cnc2c(c(-c3ccccc3)c(-c3ccccc3)n2Cc2ccco2)c1=N | inactive |
| O=C(OCc1ccc([N+](=O)[O-])cc1)C1CC(=O)N(Cc2ccccc2Cl)C1 (stereo unspecified) | inconclusive: 28.2 µM [quencher, single point] |
| Cn1c(=O)c(Nc2ccc(O)cc2)c2c3c(cccc31)C(=O)c1ccccc1-2 | inconclusive: 12.6 µM [quencher, side channel, partial curve] |
| Cc1ccc(C2c3c(oc4ccccc4c3=O)C(=O)N2c2nnc(C(C)C)s2)o1 (stereo unspecified) | inconclusive: 15.8 µM [quencher, side channel, partial curve, poor fit] |
| COCCNC(=S)N/N=C/c1ccc(N2CCOCC2)cc1 | inconclusive: 17.8 µM [quencher, side channel, partial curve] |
| O=C(c1nnc(-c2ccncc2)o1)c1ccccc1Cl | inconclusive: 10 µM [quencher, side channel, partial curve] |
| COc1ccc2cc(C(=O)C3CCCN(C(=O)c4snnc4C)C3)ccc2c1 (stereo unspecified) | inconclusive: 31.6 µM [quencher, side channel, partial curve] |
| CC(C(=O)NC1CCCCC1)N(Cc1ccccc1)C(=O)c1snc(C(N)=O)c1N (stereo unspecified) | inconclusive: 20 µM [quencher, side channel, single point] |
| O=C(CNC(=O)C1COc2ccccc2O1)N/N=C/c1cc(Br)c(O)c(Br)c1 (stereo unspecified) | inconclusive: 28.2 µM [quencher, side channel, single point] |
| COc1ccccc1COn1c(=O)c(-c2ccco2)[n+]([O-])c2ccccc21 | inconclusive: 12.6 µM [quencher, side channel, partial curve] |
| O=C(CSc1nc2[nH]ncc2c(=O)[nH]1)N1CCCC1 | inactive |
| COc1ccc(-n2nc(C(=O)NCC(=O)N3CCCCCC3)c3ccccc3c2=O)cc1OC | inconclusive: 15.8 µM [quencher, side channel, partial curve] |
| O=C(O)CN1C(=O)/C(=C/c2ccsc2)SC1=S | inconclusive: 20 µM [quencher, side channel, partial curve] |

| SMILES | Potency |
| --- | --- |
| CCOC(=O)c1ccc(NC(=S)N(CCCN2CCCC(C)C2)Cc2cccs2)cc1 (stereo unspecified) | inactive |
| C/C(Cn1cnc([N+](=O)[O-])n1)=N\NC(=O)c1ccc(Br)cc1 | inconclusive: 20 µM [quencher, single point] |
| O=C(CCCCl)NC(=S)Nc1ccc(N2CCOCC2)cc1 | inactive |
| COc1ccc(NC(=O)C(c2cc3c(cc2[N+](=O)[O-])OCO3)N(C)C)cc1 (stereo unspecified) | inconclusive: 17.8 µM [quencher, side channel, single point] |
| N#CC1=C(N)Oc2cc(N)ccc2C1c1ccc(F)cc1 (stereo unspecified) | inconclusive: 28.2 µM [quencher, single point] |
| Fc1ccc(-c2cc3nc(-c4ccccc4)cc(N4CCN(CCN5CCOCC5)CC4)n3n2)cc1 | inactive |
| COc1ccccc1OCc1ccc(C(=O)OCC2CCCO2)o1 (stereo unspecified) | inactive |
| O=C(O)Cn1c(SCCOc2ccccc2)nc2ccccc21 | inactive |
| CC(C)Nc1ccc(C(CC(N)=O)NC(=O)c2ccccc2)cc1[N+](=O)[O-] (stereo unspecified) | inconclusive: 12.6 µM [quencher, side channel, partial curve] |
| O=C1C2CCCCN2C(=O)N1CCN1CCN(c2ccc([N+](=O)[O-])cc2)CC1 (stereo unspecified) | inconclusive: 25.1 µM [quencher, side channel, partial curve] |
| C/C(=N\NC(=O)CSc1nnc(C)s1)c1ccc(Cl)cc1 | inconclusive: 0.112 µM [fluorescent, side channel, full curve] |
| O=C(CN1CCN(Cc2ccccc2)CC1)NCCNc1ccc([N+](=O)[O-])cn1 | inconclusive: 28.2 µM [quencher, side channel, partial curve] |
| Cc1cc([N+](=O)[O-])nn1CC(=O)Nc1cnc2ccccc2c1 | inconclusive: 20 µM [quencher, side channel, single point] |
| Cc1ccc(C(=O)NC(=O)OCCn2c(C)cnc2[N+](=O)[O-])cc1 | inconclusive: 31.6 µM [quencher, side channel, single point] |
| Cn1c(SCC(=O)N/N=C/C=C\c2ccco2)nc2ccccc21 | inconclusive: 11.2 µM [quencher, side channel, partial curve] |
| CCc1ccc(/C=C2/C(=O)NC(=O)N2C(C)=O)cc1 | inconclusive: 17.8 µM [quencher, side channel, partial curve] |
| COC(=O)c1cc(C(=O)Nc2nnc(CC(C)C)s2)cc([N+](=O)[O-])c1 | inconclusive: 3.16 µM [quencher, side channel, full curve, poor fit] |
| COc1ccc(/C=N/NC(=O)Cc2cc(OC)c(OC)cc2[N+](=O)[O-])cc1 | inconclusive: 39.8 µM [quencher, side channel, single point] |
| CCc1ccc(N(C(=O)c2snc(C(N)=O)c2N)C(C(=O)NC2CCCC2)c2ccco2)cc1 (stereo unspecified) | inactive |
| c1cncc(CSc2ccc(-c3cccs3)nn2)c1 | inconclusive: 44.7 µM [quencher, side channel, partial curve, poor fit] |
| CN(CC(=O)Nc1ccc(F)cc1[N+](=O)[O-])Cc1ccccc1 | inconclusive: 25.1 µM [quencher, side channel, partial curve] |

| SMILES | Potency |
| --- | --- |
| Cc1nc2ccc(NC(=O)c3ccc([N+](=O)[O-])cc3[N+](=O)[O-])cc2s1 | inconclusive: 7.08 µM [quencher, side channel, partial curve] |
| O=[N+]([O-])c1cccnc1Sc1ccc(Cl)cc1 | inconclusive: 12.6 µM [quencher, side channel, partial curve] |
| S=c1[nH]nc(-c2cccnc2)n1/N=C/c1ccco1 | inconclusive: 20 µM [quencher, side channel, single point] |
| O=C(NC(=S)N1CCCCC1)c1cccs1 | inactive |
| CCOC(=O)Cn1c(S(=O)(=O)Cc2ccccc2Cl)nc(-c2ccccc2)c1-c1ccccc1 | inconclusive: 39.8 µM [quencher, side channel, single point] |
| CCOC(=O)c1c(C)n(-c2ccc(C)cc2)c2ccc(O)c(CN(C)C)c12 | inactive |
| COc1ccc(CCNC(=O)CN(C)S(=O)(=O)c2cccc3nsnc23)cc1OC | inconclusive: 14.1 µM [quencher, side channel, partial curve] |
| COC(=O)c1cc(Cl)c(NC(=O)/C=C/c2ccc(Cl)cc2)cc1OC | inactive |
| COc1ccc(-c2cc(C(F)(F)F)nc(N3CCCCCC3)n2)cc1 | inactive |
| Cc1nc(N2CCCCC2C)c2c(C)c(C(=O)Nc3ccccc3C(F)(F)F)sc2n1 (stereo unspecified) | inactive |
| O=C(N/N=C/c1cccc(OCc2ccccc2)c1)c1cccs1 | inactive |
| Cc1ccc(S(=O)(=O)NCCSCc2ccccc2)cc1 | inconclusive: 28.2 µM [quencher, single point] |
| CC(C)Oc1ccccc1/C=N/Nc1ccccc1[N+](=O)[O-] | inconclusive: 1.58 µM [quencher, side channel, full curve, poor fit] |
| CCN(CC)C1CCN(C(=O)c2ccc3nc(Cc4ccc(OC)cc4)oc3c2)C1 (stereo unspecified) | inactive |
| Cc1c(NC(=S)N/N=C/C=C/c2ccc([N+](=O)[O-])cc2)c(=O)n(-c2ccccc2)n1C | inconclusive: 15.8 µM [quencher, side channel, partial curve] |
| COc1ccc(/C=C2\SC(N3CCCCC3)=NC2=O)cc1 | inconclusive: 2.82 µM [quencher, side channel, full curve] |
| N#Cc1nc(-c2ccccc2)oc1NCCN1CCCCC1 | inactive |
| CCc1ccc[n+](-c2[nH]c(=O)sc2/C=N/N=C(\N)[O-])c1 | inconclusive: 15.8 µM [quencher, side channel, partial curve] |
| COc1ccc(-c2nc3ccccc3c(=O)n2-c2c(C)n(C)n(-c3ccccc3)c2=O)cc1 | inconclusive: 7.08 µM [fluorescent, single point] |
